This assay addresses FOXO4 forkhead domain (FHD) (95-195) (human, UniProt P98177 95-195). Briefly: ITC. Background: ITC needs no label: the signal is the heat of the interaction.

B1: p53 transactivation domain (TAD) ([…]) (domain or fragment)
chain: not shown
As usually defined, the Kd is the constant that tells how readily two partners part at equilibrium. For the molecule B1, the Kd was 2190 nM.

Values taken from article doi:10.1101/2021.01.11.425814 (bioRxiv, 2021).
